Experimental data published in the supplement of paper PMC10126150.
Sequences with one replicate were seen in a single cluster, so their values are uncertain.

Test system: ATP
Test: switch fluorescence ratio, 500 uM ATP over buffer (Cy3 cluster intensity, sum of 5 cycles each) (fold (ratio)); higher = stronger signal-on switching upon ATP binding; sequences stand for … in TCGTCGGCAGCGTCAGATGTGTATAAGAGACAGTTTTTTTTTTTTTTTTTTTTTTTTT…TC
Details: aptamer strand: ATP DNA aptamer (quencher-CACCTGGGGGAGTATTGCGGAGGAAGG + anchor), 100 nM annealed; ATP concentration: 500 uM; one replicate
How it was run: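 Clusters with intensities outside 100-1000 RFU were excluded. The remaining Cy3-labelled switching-strand clusters on a modified Illumina MiSeq flow-cell had been annealed to 100 nM quencher-labelled ATP aptamer and imaged in selection buffer, then after 15 min with 500 uM ATP at 22 °C, for five cycles separated by NaOH stripping and re-annealing. The fluorescence ratio, averaged per switch-domain sequence, is each cluster's summed target-cycle Cy3 intensity over its summed buffer-cycle Cy3 intensity.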
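Further: ATP exposure 15 min at 22 °C before imaging.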

Which switch fluorescence ratio does the source give for ATCTTACTGG here?
The switch fluorescence ratio was 0.988.

How did the switch fluorescence ratio turn out when ATCTTAGAGC was run?
Its switch fluorescence ratio is 0.967.

ATCTTAGTAT was tested. Which switch fluorescence ratio did it give?
Its switch fluorescence ratio is 0.99.

How did the switch fluorescence ratio turn out when ATCTTCCCTA was run?
Its switch fluorescence ratio is 0.987.

ATCTTCCCTG was tested. Which switch fluorescence ratio did it give?
Its switch fluorescence ratio is 1.22.

With ATCTTCGAGG as the sequence, how does the switch fluorescence ratio read?
Its switch fluorescence ratio is 0.998.

ATCTTGGTTC was tested. Which switch fluorescence ratio did it give?
Its switch fluorescence ratio is 0.976.

ATCTTGTATT was tested. Which switch fluorescence ratio did it give?
Its switch fluorescence ratio is 0.985.

ATCTTTTTCG was tested. Which switch fluorescence ratio did it give?
Its switch fluorescence ratio is 1.

ATGAAAAAGG was tested. Which switch fluorescence ratio did it give?
The switch fluorescence ratio was 1.01.

ATGAAACTAA was tested. Which switch fluorescence ratio did it give?
Its switch fluorescence ratio is 1.1.

For ATGAAAT, which switch fluorescence ratio is on record?
The switch fluorescence ratio was 0.982.

How did the switch fluorescence ratio turn out when ATGAACCATT was run?
Its switch fluorescence ratio is 1.01.

With ATGAAGAGGA as the sequence, how does the switch fluorescence ratio read?
The switch fluorescence ratio was 1.01.

Which switch fluorescence ratio does the source give for ATGAATTCCG here?
The switch fluorescence ratio was 1.01.

Which switch fluorescence ratio does the source give for ATGACAAGGA here?
Its switch fluorescence ratio is 1.01.

For ATGACGCATA, which switch fluorescence ratio is on record?
Its switch fluorescence ratio is 3.94.

How did the switch fluorescence ratio turn out when ATGACTATAT was run?
The switch fluorescence ratio was 1.04.

Which switch fluorescence ratio does the source give for ATGACTGGGT here?
The switch fluorescence ratio was 1.02.

For ATGACTGTGT, which switch fluorescence ratio is on record?
The switch fluorescence ratio was 0.96.

For ATGACTTCGT, which switch fluorescence ratio is on record?
The switch fluorescence ratio was 1.

For ATGAGAATGG, which switch fluorescence ratio is on record?
The switch fluorescence ratio was 1.02.

How did the switch fluorescence ratio turn out when ATGAGCATCC was run?
Its switch fluorescence ratio is 1.01.

Which switch fluorescence ratio does the source give for ATGAGCG here?
The switch fluorescence ratio was 1.01.

How did the switch fluorescence ratio turn out when ATGAGCGGGT was run?
The switch fluorescence ratio was 0.98.

How did the switch fluorescence ratio turn out when ATGAGGAAAG was run?
The switch fluorescence ratio was 1.04.

With ATGAGGAGT as the sequence, how does the switch fluorescence ratio read?
Its switch fluorescence ratio is 0.983.

For ATGAGGGTAT, which switch fluorescence ratio is on record?
The switch fluorescence ratio was 1.03.

For ATGAGTCAGT, which switch fluorescence ratio is on record?
The switch fluorescence ratio was 0.977.

ATGATAAACA was tested. Which switch fluorescence ratio did it give?
The switch fluorescence ratio was 1.01.

For ATGATAAGTC, which switch fluorescence ratio is on record?
Its switch fluorescence ratio is 1.04.

ATGATATCGT was tested. Which switch fluorescence ratio did it give?
The switch fluorescence ratio was 1.01.

ATGATGGCAG was tested. Which switch fluorescence ratio did it give?
The switch fluorescence ratio was 1.05.

With ATGATTATTA as the sequence, how does the switch fluorescence ratio read?
Its switch fluorescence ratio is 0.967.

Which switch fluorescence ratio does the source give for ATGCACCTTC here?
The switch fluorescence ratio was 1.13.

With ATGCAGTAAG as the sequence, how does the switch fluorescence ratio read?
Its switch fluorescence ratio is 1.01.

With ATGCAGTCAT as the sequence, how does the switch fluorescence ratio read?
The switch fluorescence ratio was 0.974.

For ATGCAGTGCA, which switch fluorescence ratio is on record?
Its switch fluorescence ratio is 1.04.

With ATGCATACA as the sequence, how does the switch fluorescence ratio read?
The switch fluorescence ratio was 1.03.

With ATGCATCGTC as the sequence, how does the switch fluorescence ratio read?
The switch fluorescence ratio was 1.01.

With ATGCCAACT as the sequence, how does the switch fluorescence ratio read?
The switch fluorescence ratio was 1.01.

With ATGCCCGTAC as the sequence, how does the switch fluorescence ratio read?
Its switch fluorescence ratio is 1.03.

For ATGCCGAGT, which switch fluorescence ratio is on record?
The switch fluorescence ratio was 0.996.

ATGCCGAGTA was tested. Which switch fluorescence ratio did it give?
Its switch fluorescence ratio is 0.977.

For ATGCCGGAAG, which switch fluorescence ratio is on record?
Its switch fluorescence ratio is 0.996.

ATGCCGGCGT was tested. Which switch fluorescence ratio did it give?
The switch fluorescence ratio was 0.983.

Which switch fluorescence ratio does the source give for ATGCCTACGT here?
The switch fluorescence ratio was 1.04.

How did the switch fluorescence ratio turn out when ATGCCTATGT was run?
Its switch fluorescence ratio is 0.943.

ATGCCTTTTT was tested. Which switch fluorescence ratio did it give?
Its switch fluorescence ratio is 0.981.

Which switch fluorescence ratio does the source give for ATGCGAATGT here?
The switch fluorescence ratio was 1.01.

How did the switch fluorescence ratio turn out when ATGCGTCTCA was run?
Its switch fluorescence ratio is 1.02.

Which switch fluorescence ratio does the source give for ATGCGTCTTG here?
The switch fluorescence ratio was 0.98.

ATGCGTGTCT was tested. Which switch fluorescence ratio did it give?
Its switch fluorescence ratio is 0.989.

With ATGCGTTTCG as the sequence, how does the switch fluorescence ratio read?
Its switch fluorescence ratio is 0.991.

ATGCTAAGGC was tested. Which switch fluorescence ratio did it give?
The switch fluorescence ratio was 0.988.

Which switch fluorescence ratio does the source give for ATGCTCAATG here?
Its switch fluorescence ratio is 0.937.

With ATGCTCAGCC as the sequence, how does the switch fluorescence ratio read?
The switch fluorescence ratio was 1.

ATGCTGTGCG was tested. Which switch fluorescence ratio did it give?
Its switch fluorescence ratio is 1.02.

Which switch fluorescence ratio does the source give for ATGCTTCTTA here?
The switch fluorescence ratio was 1.

ATGCTTGACC was tested. Which switch fluorescence ratio did it give?
The switch fluorescence ratio was 1.03.

With ATGGAACTCC as the sequence, how does the switch fluorescence ratio read?
The switch fluorescence ratio was 1.05.

ATGGAACTTA was tested. Which switch fluorescence ratio did it give?
Its switch fluorescence ratio is 0.983.

For ATGGAAGAAG, which switch fluorescence ratio is on record?
The switch fluorescence ratio was 0.96.

ATGGAAGCAT was tested. Which switch fluorescence ratio did it give?
The switch fluorescence ratio was 0.967.

How did the switch fluorescence ratio turn out when ATGGAATATG was run?
The switch fluorescence ratio was 1.03.

With ATGGACGATA as the sequence, how does the switch fluorescence ratio read?
Its switch fluorescence ratio is 1.03.

With ATGGACGCGC as the sequence, how does the switch fluorescence ratio read?
Its switch fluorescence ratio is 1.03.

Which switch fluorescence ratio does the source give for ATGGAGAAAT here?
The switch fluorescence ratio was 1.05.

Which switch fluorescence ratio does the source give for ATGGAGACAG here?
Its switch fluorescence ratio is 0.966.

ATGGAGAGGT was tested. Which switch fluorescence ratio did it give?
The switch fluorescence ratio was 0.975.

ATGGAGCACC was tested. Which switch fluorescence ratio did it give?
The switch fluorescence ratio was 1.27.

For ATGGAGCTG, which switch fluorescence ratio is on record?
Its switch fluorescence ratio is 1.03.

How did the switch fluorescence ratio turn out when ATGGATTC was run?
Its switch fluorescence ratio is 0.976.

ATGGATTGTC was tested. Which switch fluorescence ratio did it give?
Its switch fluorescence ratio is 0.886.

Which switch fluorescence ratio does the source give for ATGGCATGGT here?
Its switch fluorescence ratio is 0.998.

ATGGCCAGTT was tested. Which switch fluorescence ratio did it give?
The switch fluorescence ratio was 1.04.

For ATGGCCTCTT, which switch fluorescence ratio is on record?
Its switch fluorescence ratio is 1.39.

With ATGGCGAGAG as the sequence, how does the switch fluorescence ratio read?
Its switch fluorescence ratio is 1.09.

How did the switch fluorescence ratio turn out when ATGGCGCGTA was run?
Its switch fluorescence ratio is 0.915.

Which switch fluorescence ratio does the source give for ATGGCGTAAG here?
The switch fluorescence ratio was 0.989.

ATGGCGTTGG was tested. Which switch fluorescence ratio did it give?
The switch fluorescence ratio was 1.

For ATGGCTCACT, which switch fluorescence ratio is on record?
The switch fluorescence ratio was 0.989.

With ATGGGAAGCC as the sequence, how does the switch fluorescence ratio read?
Its switch fluorescence ratio is 1.02.

How did the switch fluorescence ratio turn out when ATGGGACTGG was run?
The switch fluorescence ratio was 0.971.

ATGGGAGGCC was tested. Which switch fluorescence ratio did it give?
The switch fluorescence ratio was 0.937.

For ATGGGATCTA, which switch fluorescence ratio is on record?
The switch fluorescence ratio was 0.977.

With ATGGGGGAAG as the sequence, how does the switch fluorescence ratio read?
Its switch fluorescence ratio is 0.982.

How did the switch fluorescence ratio turn out when ATGGGGTCTC was run?
The switch fluorescence ratio was 1.03.

With ATGGGTAGCC as the sequence, how does the switch fluorescence ratio read?
Its switch fluorescence ratio is 0.977.

For ATGGGTATTC, which switch fluorescence ratio is on record?
The switch fluorescence ratio was 1.01.

Which switch fluorescence ratio does the source give for ATGGTACGGG here?
The switch fluorescence ratio was 1.06.

For ATGGTCCTGC, which switch fluorescence ratio is on record?
The switch fluorescence ratio was 0.96.

For ATGGTCTACT, which switch fluorescence ratio is on record?
The switch fluorescence ratio was 1.03.

Which switch fluorescence ratio does the source give for ATGGTGAGCA here?
The switch fluorescence ratio was 0.962.

Which switch fluorescence ratio does the source give for ATGGTGCGTG here?
The switch fluorescence ratio was 0.999.

How did the switch fluorescence ratio turn out when ATGGTGGGGT was run?
The switch fluorescence ratio was 1.01.

How did the switch fluorescence ratio turn out when ATGGTGGTTG was run?
Its switch fluorescence ratio is 1.01.

Which switch fluorescence ratio does the source give for ATGGTTCCCG here?
The switch fluorescence ratio was 1.01.

Which switch fluorescence ratio does the source give for ATGGTTCCGG here?
Its switch fluorescence ratio is 1.02.

With ATGGTTGC as the sequence, how does the switch fluorescence ratio read?
Its switch fluorescence ratio is 0.966.
